Measurements as given in PubChem BioAssay (NCATS).
Values joined by “and” are separate entries in the source; they are usually repeats but may differ in a detail not shown here. Equal values may be shown once. The inconclusive results got no clear call from the source; some entries with a clear call stand among them for comparison. Potencies beside an inconclusive call are fits to weak or partial responses and may not hold up. Active and inactive are the calls of the source. Calls follow the shape of the dose curve; as a rule, active = well fitted curve in the direction sought with a large enough effect; inconclusive = small, poorly fitted or top-dose-only effect, or another doubt; inactive = no such curve, though single readings can be large; an effect the other way counts as inactive or inconclusive.

Columns and labels:
[1] = Primary qHTS for inhibitors of nuclear receptor binding SET domain protein 2 (NSD2) in an isogenic RCH-ACV NSD2 p.E1099K mutant (9B) (AID 1645876)
[2] = Primary qHTS for inhibitors of nuclear receptor binding SET domain protein 2 (NSD2) in an RCH-ACV wild type WT cells (2C) (AID 1645877)
Also: nearly all actives have a fitted effect of over 70% in size.
Potency is read from the fitted curve at half-maximal effect; tags tell the direction and shape of the fitted curve.

SMILES | Potency [1] | Potency [2]
O=C(C1CC1)N1CC[C@@H](Cn2c(-c3ccc(-c4ccc5occc5c4)cc3)nc3cnccc32)C1 | active: 18.6 µM | active: 16.6 µM
CCOC(=O)c1ccc(OC(=O)CCCCCN=C(N)N)cc1 | inconclusive: 21.1 µM [inhibitor, single point] | inconclusive: 33.5 µM [inhibitor, single point] and active: 23.5 µM
CN(C)CCOc1cc(-c2cn[nH]c2)ccc1NC(=O)C1COc2ccccc2O1 (stereo not given) | inconclusive: 7.42 µM [inhibitor, full curve, poor fit] and inconclusive: 10.3 µM [inhibitor, partial curve] | inconclusive: 5.25 µM [inhibitor, full curve, poor fit]
O=C(NCc1ccncc1)C12C[C@H]3C[C@@H](C1)CC(c1ccc(Cl)cc1)(C3)C2 | inconclusive: 23.5 µM [inhibitor, partial curve] | inconclusive: 37.2 µM [inhibitor, single point]
C[C@]12CC[C@@H]3c4ccc(O)cc4C[C@@H](CCCCCCCCCS(=O)CCCC(F)(F)C(F)(F)F)[C@H]3[C@H]1CC[C@H]2O (stereo not given in full) | inconclusive: 5.9 µM [inhibitor, partial curve, poor fit] | inconclusive: 5.9 µM [inhibitor, partial curve]
Cn1cnc2c(F)c(Nc3ccc(Br)cc3Cl)c(C(=O)NOCCO)cc21 | inconclusive: 16.8 µM [inhibitor, partial curve] and inconclusive: 13 µM [inhibitor, partial curve, poor fit] | inconclusive: 21.1 µM [inhibitor, partial curve, poor fit] and inconclusive: 4.17 µM [inhibitor, partial curve]
c1ccc2c(Oc3nc(Nc4ccc(N5CCOCC5)cc4)c4ncn(C5CCCCC5)c4n3)cccc2c1 | inactive | inconclusive: 16.3 µM [inhibitor, single point] and inactive
CO[C@@H](C(=O)N1Cc2[nH]nc(NC(=O)c3ccc(N4CCN(C)CC4)cc3)c2C1)c1ccccc1 | active: 73.1 nM and active: 118 nM | active: 58 nM and active: 52.5 nM
COc1ccc(Nc2nccc(NCCO)n2)cc1 | inconclusive: 18.6 µM [inhibitor, partial curve, poor fit] | inconclusive: 13.2 µM [inhibitor, partial curve, poor fit]
CC1(C)Cc2c(-c3ccccc3)c(-c3ccc(Cl)cc3)c(CC(=O)O)n2C1 | inconclusive: 16.6 µM [inhibitor, partial curve, poor fit] | inconclusive: 20.9 µM [inhibitor, partial curve]
COC(=O)C[C@](O)(CCCC(C)(C)O)C(=O)O[C@@H]1C(OC)=C[C@]23CCCN2CCc2cc4c(cc2[C@H]13)OCO4 | inconclusive: 0.209 µM [inhibitor, full curve, poor fit] | inconclusive: 0.105 µM [inhibitor, full curve, poor fit]
CNC1CCC(N(Cc2cccc(-c3ccncc3)c2)C(=O)c2sc3c(F)ccc(F)c3c2Cl)CC1 (stereo not given) | active: 8.33 µM and active: 8.17 µM | 
Cn1c(=O)c(Oc2ccc(F)cc2F)cc2cnc(NC3CCOCC3)nc21 | inconclusive: 0.731 µM [inhibitor, partial curve] | inconclusive: 1.03 µM [inhibitor, partial curve]
CO[C@H]1C[C@@H]2CC[C@@H](C)[C@@](O)(O2)C(=O)C(=O)N2CCCC[C@@H]2C(=O)O[C@H]([C@@H](C)C[C@@H]2CC[C@H](O)[C@H](OC)C2)CC(=O)[C@H](C)C=C(C)[C@@H](O)[C@@H](OC)C(=O)[C@H](C)C[C@H](C)C=CC=CC=C1C | inconclusive: 0.0042 µM [inhibitor, full curve] | inconclusive: 0.0019 µM [inhibitor, full curve]
Cc1cc(C(=O)NOCCO)c(Nc2ccc(I)cc2F)n(C)c1=O | inactive | inconclusive: 1.18 µM [inhibitor, partial curve]
CN(C)C(=O)[C@H](O)[C@H](Cc1ccccc1)NC(=O)c1cc2cc(Cl)ccc2[nH]1 | inconclusive: 14.8 µM [inhibitor, partial curve, poor fit] | inconclusive: 16.6 µM [inhibitor, partial curve]

SMILES | Potency [1] | Potency [2]
CN(C)Cc1cccc(N=C(c2ccccc2)c2c(O)[nH]c3cc(C(=O)N(C)C)ccc23)c1 | active: 16.6 µM | active: 14.8 µM
CCC(C)N(C)C(=O)c1cc2ccccc2c(-c2ccccc2Cl)n1 (stereo not given) | inconclusive: 18.6 µM [inhibitor, partial curve, poor fit] | inconclusive: 29.5 µM [inhibitor, single point]
COc1ccc(Cc2ccc(NC(N)=O)cc2)cc1-c1cccc(Cl)c1 | inconclusive: 18.6 µM [inhibitor, partial curve] | inconclusive: 23.5 µM [inhibitor, single point]
CC(C)(C)C(=O)Oc1ccc2c(c1)nc(NC(=O)c1cccc([N+](=O)[O-])c1)n2CCCO | inconclusive: 20.6 µM [inhibitor, single point] | inconclusive: 25.9 µM [inhibitor, single point]
COc1ccc(CC2SC(=O)NC2=O)cc1C(=O)NCc1ccc(C(F)(F)F)cc1 (stereo not given) | inconclusive: 20.9 µM [inhibitor, partial curve] | inconclusive: 14.8 µM [inhibitor, partial curve]
CNC(=O)c1ccc2cc(C3(O)CCn4cncc43)ccc2c1 (stereo not given) | inactive | 
Cc1ccc(/C=N/NC(=O)c2ccccc2Oc2ccccc2)o1 | inconclusive: 16.6 µM [inhibitor, partial curve] | inconclusive: 37.2 µM [inhibitor, partial curve, poor fit]
Clc1ccc(C(c2ccccc2Cl)C(Cl)Cl)cc1 (stereo not given) | inconclusive: 29.9 µM [inhibitor, single point] | inconclusive: 33.5 µM [inhibitor, single point]
OC(c1cc(C(F)(F)F)nc2c(C(F)(F)F)cccc12)C1CCCCN1 (stereo not given) | active: 11.8 µM | active: 13.2 µM
O=C(O)c1cc(=O)[nH]c(=O)[nH]1 | inconclusive: 18.8 µM [inhibitor, single point] and inactive | inconclusive: 33.5 µM [inhibitor, single point]
COc1nc(-c2ccc3c(c2)OCO3)n(-c2ccc(NC(=O)CSc3ccccc3)cc2)n1 | inconclusive: 20.9 µM [inhibitor, single point] | inconclusive: 20.9 µM [inhibitor, partial curve]
CC(C)(C)OC(=O)N[C@H]1CCCCCC=C[C@@H]2C[C@@]2(C(=O)NS(=O)(=O)C2CC2)NC(=O)[C@@H]2C[C@@H](OC(=O)N3Cc4cccc(F)c4C3)CN2C1=O | inconclusive: 23 µM [inhibitor, single point] | inconclusive: 20.5 µM [inhibitor, single point]
Cn1c(=O)c(F)c(Nc2ccc(I)cc2F)c2c(=O)n(C[C@@H](O)CO)cnc21 | inconclusive: 6.61 µM [inhibitor, partial curve] | inconclusive: 7.42 µM [inhibitor, full curve]
COc1cc2nccc(Oc3ccc(NC(=O)Nc4ccc(F)cc4F)c(F)c3)c2cc1OC | inconclusive: 2.63 µM [inhibitor, full curve] | active: 2.35 µM
CC[C@H](CO)Nc1nc(NCc2ccccc2)c2ncn(C(C)C)c2n1 | inconclusive: 23.1 µM [inhibitor, single point] and active: 14.8 µM | inconclusive: 18.4 µM [inhibitor, single point] and active: 13.2 µM
